Data reported in PubChem BioAssay AID652104 (National Center for Advancing Translational Sciences (NCATS), 2013).
The whole screen tested about 410,000 compounds, of which about 7,200 (1.8%) were called active. The inconclusive results got no clear call from the source; some entries with a clear call stand among them for comparison. The call rests on the fitted dose curve; in most records, active means well fitted activation curve with a large enough effect; inconclusive means small, poorly fitted or top-dose-only effect, or another doubt; inactive means no such curve, though single readings can be large or run the other way. No potency is given beside an inconclusive call; the fits are too rough.

experiment: qHTS of TDP-43 Inhibitors; details: TDP-43 expressing yeast growth rescue, BacTiter-Glo, 24 h; growth rescue (activation): at 46.1 µM (top of the series) unless noted; further: nearly all actives have a fitted effect of over 50% in size; on growth rescue (activation): % of control where 0% means no effect
Procedure, shortened: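 Readout is BacTiter-Glo luminescence of cell growth, so inhibitors register as activators. TDP-43-expressing yeast at OD600=0.02 in galactose medium, after raffinose pregrowth to mid-log, were incubated with compound for 24 hr at 30 deg C.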
Potency means the concentration at half of the fitted maximal effect; tags describe the fitted curve by direction and shape.

SMILES	Potency	growth rescue (activation)
COc1ccc(NC(=O)CC2Sc3ncnn3C2=O)cc1 (stereo not drawn)	inconclusive [activator, partial curve, poor fit]	
COc1ccc2c(c1)c(=O)c(S(=O)(=O)c1ccc(F)cc1)cn2CC(=O)Nc1ccc(C)cc1C	inconclusive [activator, single point]	
COc1ccc(CN(C(=O)Nc2cc(C)ccc2C)C2CCN(C(C)=O)CC2)cc1	inactive	
Cc1ccc(C(=O)N2CCC(Cc3ccccc3)CC2)cc1[N+](=O)[O-]	inconclusive [activator, single point]	
Cc1ccc(CNCc2ccc3c(c2)n(C)c(=O)n3C)cc1		inactive: 27.7% [at 9.22 µM]
Cc1ccc(C)c(S(=O)(=O)N2CCN(C(=O)c3sccc3C)CC2)c1	inconclusive [activator, partial curve]	
Cc1ccc(C)c(NC(=S)NC(=O)c2cncc(Br)c2)c1	active: 11.2 µM	
Cc1onc(-c2ccccc2)c1C(=O)N1CCN(c2ncccc2C(F)(F)F)CC1	inconclusive [activator, single point]	
CC(C)C(=O)N1CCN(c2ccccc2NC(=O)Cc2ccc(Cl)cc2)CC1	inconclusive [activator, single point]	
O=c1c(-c2ccc(Oc3ccccc3)cc2)[n+]([O-])c2ccccc2n1OCc1ccccn1	inconclusive [activator, partial curve, poor fit]	
Cc1ccc(/C=C/C(=O)NC2CCCCCCC2)o1	inconclusive [activator, single point]	
Oc1ccccc1-c1nc2c3ccccc3c3ccccc3c2[nH]1	inconclusive [activator, partial curve]	
C=CCSC1=NC(=O)/C(=C/c2cccs2)S1	inconclusive [activator, partial curve]	
CC(C)(C)NC(=S)Nc1ccc(Nc2ccccc2)cc1	inactive	
O=C(COc1ccc2ccc(=O)oc2c1)OCc1ccccc1	inconclusive [activator, partial curve]	
Cc1ccc(C)c(N(CC(=O)Nc2ccccc2C(=O)NCc2ccco2)S(=O)(=O)c2ccccc2)c1	inactive	
CCc1ccc(C(C(=O)NC(C)(C)CC)N(Cc2ccco2)C(=O)Cn2nnc3ccccc32)cc1 (stereo not drawn)	inactive	
CCn1c(C(=O)N2CCc3ccccc3C2)cc2oc3ccccc3c21	inconclusive [activator, single point]	
COc1ccc(CNC(=O)CCS(=O)(=O)c2cc3c4c(c2)CCN4C(=O)CC3)cc1OC	inconclusive [activator, full curve, poor fit]	
NC(=O)C1CCN(C(=O)COc2ccc3c4c(c(=O)oc3c2)CCC4)CC1	inconclusive [activator, single point]	
O=C(NCc1ccc(Cl)cc1)C(=O)NCC1CCCN1S(=O)(=O)c1cccs1 (stereo not drawn)	inconclusive [activator, partial curve, poor fit]	
COc1ccccc1CNC(=O)c1cc2cccc3c2n1CCS3	inactive	
CC(C)N1CCC2(CC1)N=C(c1ccc3c(c1)OCO3)CC(c1cc(Cl)ccc1O)N2 (stereo not drawn)		inconclusive: -92.7% [activator]

SMILES	Potency	growth rescue (activation)
O=C1C=CC(=Nc2ccc3c(c2)Cc2cc(F)ccc2-3)O1		inconclusive: -92.3% [activator]
CCCCn1c(OC(=S)N(CC)CC)cc(C)nc1=S	inconclusive [activator, full curve, poor fit]	
COc1ccc(/C(N)=N/OC(=O)CCc2ccccc2)cc1OC	inconclusive [activator, partial curve]	
Oc1cc2c(c(Cl)c1O)CCNCC2c1ccccc1 (stereo not drawn)	inconclusive [activator, full curve, poor fit]	
Cc1cc2ccccn2c1C(=O)c1ccccc1Br	inconclusive [activator, single point]	
CCc1cc(=O)oc2cc(OCC(=O)OC)c(Cl)cc12	active: 11.2 µM	
CC(C)C(=O)c1cc2c(cc1NC(=O)c1ccccc1F)OCCO2	inactive	
Cc1ccc(C(=O)OCn2ncc(Cl)c(Cl)c2=O)cc1	active: 3.16 µM	
COc1ccc2c(c1)CCCN2S(=O)(=O)c1ccc(Cl)cc1	inconclusive [activator, single point]	
Cc1cccc(-n2ncc(C(=O)Nc3ccc4c(c3)OCO4)c2C2CCN(C(=O)OC(C)(C)C)CC2)c1	inactive	
COc1cc(OC)c(NC(=O)CN(C)S(=O)(=O)c2ccc(-c3ccc(=O)[nH]n3)s2)cc1Cl	inconclusive [activator, single point]	
Cc1cc2oc(C(=O)Nc3cccnc3)c(C)c2cc1C	inconclusive [activator, full curve]	
COc1ccc(NC(=O)[C@@H](NC(=O)c2ccccc2F)C(C)C)cc1S(=O)(=O)N1CCOCC1	inconclusive [activator, partial curve]	
O=C(COC(=O)C1=COCCO1)Nc1ccc(Oc2ccccc2)cc1	inconclusive [activator, single point]	
c1csc(-c2ccc3nncn3c2)c1	inactive	
Cc1cc(C(=O)COc2ccc(F)cc2Br)c(C)n1C1CC1	inconclusive [activator, partial curve]	
Cc1[nH]n(-c2ccccc2)c(=O)c1/C=N/N(C)c1ccccc1	inconclusive [activator, partial curve]	
CC(C)n1c(N2CCN(C(=O)N3CCCCC3)CC2)nc2ccccc21	inconclusive [activator, partial curve]	
COc1cccc2cc(-c3n[nH]c(=S)n3C)oc12	inconclusive [activator, single point]	
N#Cc1ccccc1CSc1nnc(-c2ccncc2)o1	inactive	
CC1=NOC(=O)/C1=C/c1ccc2c(c1)OCO2	inconclusive [activator, single point]	
Cc1cc(C)c2nc(NNC(=O)c3ccc(S(=O)(=O)N4CCc5ccccc5C4)cc3)sc2c1	inactive	
Cn1c(-c2ccc3nc(N)sc3c2)nc2cc(N)ccc21	inconclusive [activator, partial curve, poor fit]	

SMILES	Potency	growth rescue (activation)
O=C(NC(=O)c1ccc(F)cc1)Nc1nc(-c2cccs2)cc(C(F)(F)F)n1	inconclusive [activator, partial curve]	
S=c1[nH]nc(C(c2ccccc2)C2CCCCC2)o1 (stereo not drawn)	inconclusive [activator, single point]	
CCN(CC)S(=O)(=O)c1ccc2c(c1)N(CC(=O)Nc1c(C)cc(C)cc1C)C(=O)CS2		inconclusive: 32.3% [activator]
O=C(CN1CCCSc2ccccc21)N1CCN(S(=O)(=O)c2cccc(F)c2)CC1	inconclusive [activator, single point]	
CCS(=O)(=O)N1Cc2ccccc2CC1C(=O)N1CCN(c2cccc(C)c2C)CC1 (stereo not drawn)	inconclusive [activator, single point]	
O=C(NCCOc1ccccc1)C(=O)c1c[nH]c2ccccc12	inconclusive [activator, full curve, poor fit]	
OC(c1ccccc1)c1ncc(-c2cccc(OCc3ccccc3)c2)[nH]1 (stereo not drawn)	inconclusive [activator, partial curve, poor fit]	
O=C(O)c1ccc(N=NN2CCOCC2)cc1	inconclusive [activator, single point]	
Cc1cccc(C)c1NC(=O)N1C(C(=O)O)CSC1C(=O)O (stereo not drawn)	inconclusive [activator, full curve, poor fit]	
Nc1[nH]n(-c2ccccc2)c(=O)c1N=Nc1ccccc1[N+](=O)[O-]	inconclusive [activator, partial curve]	
Cc1ccc(S(=O)(=O)N2C[C@@H]3[C@H]4CC[C@H](C4)[C@@H]3[C@@H](C)[C@@H]2c2cn(Cc3ccccc3)c3ncccc23)cc1	inactive	
Clc1ccc(-c2nn3cnnc3s2)c(Cl)c1	active: 17.8 µM	
Cc1nn(CCCC(=O)NCc2ccc(Cl)cc2)c(C)c1[N+](=O)[O-]	inconclusive [activator, partial curve, poor fit]	
CCOC(=O)c1cc(OC(=O)c2cccc(F)c2)n(-c2ccccc2)n1	inconclusive [activator, single point]	
CC(=O)N1CCCc2ccc(NC(=O)c3ccc(C(F)(F)F)cc3)cc21	inactive	
COc1ccccc1OCCCn1c(C)c(C#N)c2ccccc21	inconclusive [activator, single point]	
Cc1ccccc1CS(=O)(=O)c1ncc(Cl)c(C(=O)Nc2nnc(C(C)C)s2)n1	active: 11.2 µM	
Fc1cccc(Cc2c(-c3ccco3)nc3ccc(Br)cn23)c1		inconclusive: -91.2% [activator]
COc1ccc(CN2C(=O)c3cccnc3C2=O)cc1S(=O)(=O)N1CC(C)CC(C)C1 (stereo not drawn)	inactive	
Cc1oc(-c2cccc(Br)c2)nc1CSc1nc2ncccc2[nH]1	inconclusive [activator, full curve]	
O=C(O)CCCCC1CCSS1 (stereo not drawn)	inconclusive [activator, full curve, poor fit]	
COCCN(Cc1ccc(OC)cc1)c1c(C)nc2ccc(C(=O)NCCc3c[nH]c4ccccc34)cn12	inconclusive [activator, partial curve]	
